{"source": "paper PMC4336329", "about": "(PLoS ONE, 2015)", "note": "The whole screen tested about 310,000 compounds, of which about 14,000 (4.5%) showed an effect of 50% or more. The effect is printed as a negative number. Some of the results follow.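 Note: peak tail current of the secondary pulse compared with the same well before compound.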", "data": [{"target": "human ether-à-go-go-related gene (hERG) potassium channel (human, UniProt Q12809)", "sequence (Q12809 whole entry, looked up)": "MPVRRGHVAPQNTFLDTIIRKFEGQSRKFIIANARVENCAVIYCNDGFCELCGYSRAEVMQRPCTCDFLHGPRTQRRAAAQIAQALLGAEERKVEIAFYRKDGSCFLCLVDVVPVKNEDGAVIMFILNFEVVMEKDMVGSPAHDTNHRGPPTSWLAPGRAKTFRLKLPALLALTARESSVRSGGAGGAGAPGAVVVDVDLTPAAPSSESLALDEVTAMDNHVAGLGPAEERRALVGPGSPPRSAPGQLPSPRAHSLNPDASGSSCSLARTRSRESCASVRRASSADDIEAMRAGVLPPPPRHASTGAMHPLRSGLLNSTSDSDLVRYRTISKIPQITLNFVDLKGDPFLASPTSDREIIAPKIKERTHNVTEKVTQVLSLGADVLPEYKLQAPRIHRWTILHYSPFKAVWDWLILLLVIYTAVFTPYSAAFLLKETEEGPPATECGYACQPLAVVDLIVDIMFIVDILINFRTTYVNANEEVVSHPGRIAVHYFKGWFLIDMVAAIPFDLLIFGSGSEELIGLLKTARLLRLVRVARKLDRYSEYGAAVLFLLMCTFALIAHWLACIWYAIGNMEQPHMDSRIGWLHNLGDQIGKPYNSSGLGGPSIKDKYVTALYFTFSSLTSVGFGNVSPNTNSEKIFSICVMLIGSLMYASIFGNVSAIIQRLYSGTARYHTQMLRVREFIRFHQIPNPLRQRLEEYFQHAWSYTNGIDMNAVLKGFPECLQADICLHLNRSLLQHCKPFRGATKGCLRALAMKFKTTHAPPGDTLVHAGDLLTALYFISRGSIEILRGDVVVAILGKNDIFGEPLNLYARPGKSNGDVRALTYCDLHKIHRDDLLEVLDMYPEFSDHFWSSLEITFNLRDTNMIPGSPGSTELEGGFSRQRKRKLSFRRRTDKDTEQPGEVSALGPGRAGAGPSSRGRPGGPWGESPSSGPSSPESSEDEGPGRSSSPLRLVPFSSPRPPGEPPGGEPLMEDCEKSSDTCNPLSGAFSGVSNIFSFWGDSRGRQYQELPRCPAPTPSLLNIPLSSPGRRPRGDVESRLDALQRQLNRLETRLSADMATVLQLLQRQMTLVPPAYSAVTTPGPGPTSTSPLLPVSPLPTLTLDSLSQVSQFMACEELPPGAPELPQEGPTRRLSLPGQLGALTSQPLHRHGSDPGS", "test": "primary screen, population patch clamp on CHO cells stably expressing hERG", "units": {"hERG current change (%, negative = inhibition) at 10uM": "%"}, "values": [{"molecule": "Cn1cccc1/C=N/n1c(-c2ccc(C(C)(C)C)cc2)n[nH]c1=S", "hERG current change (%, negative = inhibition) at 10uM": 11.8}, {"molecule": "CN(C)S(=O)(=O)N(CC(=O)N1CCN(Cc2ccccc2)CC1)c1ccccc1", "hERG current change (%, negative = inhibition) at 10uM": -17.5}, {"molecule": "CCOC(=O)c1c(NC(=O)CN2CCCCC2)sc(CN(C)C)c1-c1ccccc1", "hERG current change (%, negative = inhibition) at 10uM": 7.78}, {"molecule": "O=C(Nc1ccc2nccnc2c1)c1cnccn1", "hERG current change (%, negative = inhibition) at 10uM": 16.9}, {"molecule": "CCN(C(=O)C12CC3CC(CC(C3)C1)C2)C1CCS(=O)(=O)C1", "note": "(centres unmarked)", "hERG current change (%, negative = inhibition) at 10uM": 12.2}, {"molecule": "O=C(CSc1nnc(-c2ccc(Cl)cc2)n1-c1ccc(Cl)cc1)N/N=C/c1ccco1", "hERG current change (%, negative = inhibition) at 10uM": -41.7}, {"molecule": "COC(=O)c1ccc(C2CC(=O)Nc3cc(OC)c(OC)c(OC)c32)cc1", "note": "(centres unmarked)", "hERG current change (%, negative = inhibition) at 10uM": -13.5}, {"molecule": "CC(C)n1c(N2CCN(C(=O)Nc3ccc(Cl)cc3)CC2)nc2ccccc21", "hERG current change (%, negative = inhibition) at 10uM": -36.3}, {"molecule": "Cn1c(=O)c2c(nc(NCC3CCCC(CN)C3)n2Cc2ccc(Cl)cc2Cl)n(C)c1=O", "note": "(centres unmarked)", "hERG current change (%, negative = inhibition) at 10uM": -11.6}, {"molecule": "Cc1ccc(OCc2ccc(-c3ccccc3)cc2)c([N+](=O)[O-])n1", "hERG current change (%, negative = inhibition) at 10uM": -0.0811}, {"molecule": "COc1ccccc1C(=O)NC(CCSC)C(=O)NNC(=O)c1ccncc1", "note": "(centres unmarked)", "hERG current change (%, negative = inhibition) at 10uM": 2.99}, {"molecule": "Cc1ccc(OCC(=O)Nc2nnc(C3CCCO3)s2)c(Br)c1", "note": "(centres unmarked)", "hERG current change (%, negative = inhibition) at 10uM": 23}, {"molecule": "Cc1c(CC(=O)NCC(=O)NCC(=O)O)c(=O)oc2c(C)c3oc4c(c3cc12)CCCC4", "hERG current change (%, negative = inhibition) at 10uM": 11.3}, {"molecule": "O=C(COC(=O)c1ccc([N+](=O)[O-])s1)NC(=O)NCc1ccccc1", "hERG current change (%, negative = inhibition) at 10uM": -37.8}, {"molecule": "O=C(Nc1ccccc1)N(Cc1cccnc1)Cc1ccco1", "hERG current change (%, negative = inhibition) at 10uM": -32.9}, {"molecule": "COc1cc2c(cc1OC)C(C(C)C)=NC(C)(C)C2.Cl", "hERG current change (%, negative = inhibition) at 10uM": -1.99}, {"molecule": "COc1ccc(N2CCCn3c2nc2c3c(=O)n(CCCc3ccccc3)c(=O)n2C)cc1", "hERG current change (%, negative = inhibition) at 10uM": -25.1}, {"molecule": "Cc1ccc(-c2nc3ccccc3c(=O)n2-c2c(C)n(C)n(-c3ccccc3)c2=O)cc1", "hERG current change (%, negative = inhibition) at 10uM": -6.04}, {"molecule": "Cc1cccc(OCCCC(=O)NNC(=O)c2ccccn2)c1", "hERG current change (%, negative = inhibition) at 10uM": -15.6}, {"molecule": "C/C(=N\\NC(=O)COc1ccc(C)cc1Br)c1cc([N+](=O)[O-])cs1", "hERG current change (%, negative = inhibition) at 10uM": -14.8}, {"molecule": "CCC(=O)NCCNC(=O)c1c(SC)nsc1SC", "hERG current change (%, negative = inhibition) at 10uM": 4.67}, {"molecule": "O=C(O)COc1ccc2c(-c3ccccc3)cc(=O)oc2c1", "hERG current change (%, negative = inhibition) at 10uM": -8.99}, {"molecule": "CCn1c(SCC#N)nc2ccccc2c1=O", "hERG current change (%, negative = inhibition) at 10uM": 2.7}, {"molecule": "COCc1cc(=O)[nH]c(SCCS(=O)(=O)c2ccc(Cl)cc2Cl)n1", "hERG current change (%, negative = inhibition) at 10uM": 13.1}, {"molecule": "O=C(O)CN=C(NS(=O)(=O)c1ccccc1)c1ccccc1", "hERG current change (%, negative = inhibition) at 10uM": -5.93}, {"molecule": "Cc1ccc(-c2cc(C(=O)N3CCN(C4CCS(=O)(=O)C4)CC3)c3ccccc3n2)cc1", "note": "(centres unmarked)", "hERG current change (%, negative = inhibition) at 10uM": -60.7}, {"molecule": "O=C(Nc1ccc(Cl)cc1)C1CC(=O)n2c(nc3ccccc32)N1", "note": "(centres unmarked)", "hERG current change (%, negative = inhibition) at 10uM": 8.83}, {"molecule": "COc1ccc(CCN2CCCC(CN(C)C(=O)c3ccoc3C)C2)cc1", "note": "(centres unmarked)", "hERG current change (%, negative = inhibition) at 10uM": 13.4}, {"molecule": "Cc1cccc(OCC(=O)Nc2ccc3c(c2)nc(CCN2CCCCC2)n3C)c1", "hERG current change (%, negative = inhibition) at 10uM": -77.2}, {"molecule": "COc1ccc(Cn2c(C(F)(F)F)ccc(C(N)=O)c2=O)cc1", "hERG current change (%, negative = inhibition) at 10uM": 1.62}, {"molecule": "CC1(C)CC(=O)C2=C(C1)c1c(ccc3ccccc13)NC2c1ccco1", "note": "(centres unmarked)", "hERG current change (%, negative = inhibition) at 10uM": 14.1}, {"molecule": "CCOc1ncccc1C(=O)Nc1nc(C(C)(C)C)cs1", "hERG current change (%, negative = inhibition) at 10uM": 11.4}, {"molecule": "Cc1c(C)c2ccc(OS(C)(=O)=O)c(C)c2oc1=O", "hERG current change (%, negative = inhibition) at 10uM": 3.68}, {"molecule": "O=C(COc1ccc(Br)cc1)NCCCn1ccnc1", "hERG current change (%, negative = inhibition) at 10uM": -20.1}, {"molecule": "COCCCN1C(=O)C(=O)/C(=C(/O)c2ccc(S(=O)(=O)N3CCCCC3)cc2)C1c1ccc(O)c(OC)c1", "note": "(centres unmarked)", "hERG current change (%, negative = inhibition) at 10uM": -7.86}, {"molecule": "COc1ccc(NC(=O)c2cc3c(=O)n4ccccc4nc3n2C)cc1OC", "hERG current change (%, negative = inhibition) at 10uM": 13.7}, {"molecule": "CCc1cc2c(=O)c(-c3nc4ccccc4n3C)c(C)oc2c(CN2CCCCC2)c1O", "hERG current change (%, negative = inhibition) at 10uM": -1.66}, {"molecule": "O=C(N/N=C1\\CCS(=O)(=O)c2ccc(F)cc21)c1ccc(O)cc1", "hERG current change (%, negative = inhibition) at 10uM": 16.2}, {"molecule": "O=S(=O)(/N=C(/c1ccccc1)N1CCCCC1)c1ccccc1", "hERG current change (%, negative = inhibition) at 10uM": 0.361}, {"molecule": "COc1ccc2c(c1OC)C(=O)N1C2SC(C)(C)[C@H]1C(=O)NC1CC1", "note": "(some centres unmarked)", "hERG current change (%, negative = inhibition) at 10uM": 17.8}, {"molecule": "Cc1ccc2c(c1)N=C(c1ccc(F)cc1)CO2", "hERG current change (%, negative = inhibition) at 10uM": 4.92}, {"molecule": "Cc1ccc(S(=O)(=O)N2CCOCC2)cc1NC(=O)COc1ccc(-c2nnco2)cc1", "hERG current change (%, negative = inhibition) at 10uM": -25.1}, {"molecule": "COc1ccccc1N(O)C1CC(=O)N(c2ccc(F)cc2)C1=O", "note": "(centres unmarked)", "hERG current change (%, negative = inhibition) at 10uM": 5.71}, {"molecule": "Cc1nn(Cc2c(F)c(F)c(F)c(F)c2F)c(C)c1NC(=O)c1ccnn1C", "hERG current change (%, negative = inhibition) at 10uM": -20.6}, {"molecule": "CCOC(=O)N1CCN(C(=O)C2CCN(c3ncnc4c3sc3cccc(F)c34)CC2)CC1", "hERG current change (%, negative = inhibition) at 10uM": -59.9}, {"molecule": "Cl.O=C(COc1ccc(Br)cc1)NCCN1CCCC1", "hERG current change (%, negative = inhibition) at 10uM": -43.8}, {"molecule": "CCC(=Nc1ccccc1N)c1c(O)[nH]c(=O)[nH]c1=O", "hERG current change (%, negative = inhibition) at 10uM": 18.5}, {"molecule": "O=C(Cn1nc2ccccc2n1)N/N=C/c1ccc(F)cc1", "hERG current change (%, negative = inhibition) at 10uM": -2.6}, {"molecule": "CC1CC(Nc2ccccc2)c2ccccc2N1C(=O)c1cccnc1", "note": "(centres unmarked)", "hERG current change (%, negative = inhibition) at 10uM": -2.36}, {"molecule": "Cc1nc2ccsc2c(=O)n1-c1cccc(Cl)c1", "hERG current change (%, negative = inhibition) at 10uM": 14.4}, {"molecule": "CCOC(=O)NC1(Nc2cccc(Cl)c2)Oc2ccccc2O1", "hERG current change (%, negative = inhibition) at 10uM": 6.82}, {"molecule": "CCOCCCNC(=O)C1CC(=O)N(CCc2ccc(C)cc2)C1", "note": "(centres unmarked)", "hERG current change (%, negative = inhibition) at 10uM": 20.7}, {"molecule": "CCOC(=O)C(=O)Cc1nc2ccccc2s1", "hERG current change (%, negative = inhibition) at 10uM": 0.765}, {"molecule": "COc1ccc(S(=O)(=O)N2CCc3cc4c(cc3C2C)OCCCO4)cc1", "note": "(centres unmarked)", "hERG current change (%, negative = inhibition) at 10uM": 3.79}, {"molecule": "CCC(C)NS(=O)(=O)c1ccc(OCC(=O)NCc2ccccn2)cc1", "note": "(centres unmarked)", "hERG current change (%, negative = inhibition) at 10uM": -11.3}, {"molecule": "O=C(NCCc1cccs1)c1ccc(CS(=O)Cc2ccc(Cl)cc2)o1", "note": "(centres unmarked)", "hERG current change (%, negative = inhibition) at 10uM": -20.4}]}]}
